Laboratory results: the RNAGym collection of RNA variant scans (doi:10.1093/nar/gkz1192)
Read counts are not given, so values of variants with three or more changes are uncertain.

B1: CPEB3 Ribozyme (parent)
chain: UAACAGGGGGCCACAGCAGAAGCGUUCACGUCGCAGCCCCUGUCAGAUUCUGGUGAAUCUGCGAAUUCUGCUGUAUAUCUC

Variants of: B1
Assay: self-cleavage, relative activity (ratio to wild type); higher = more cleavage; in vitro, sequencing
Summary of the method: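 After error-prone PCR and barcoding, CPEB3 ribozyme mutant libraries were transcribed with T7 RNA polymerase at 37°C for 5 hours, then given 15 min with DNase I before an EDTA stop, and they cleaved during both steps. Reverse transcription with template switching preceded Illumina sequencing. Relative activity divides a variant's cleaved/total read fraction by the unmutated ribozyme's. At least 5 reads were required per variant, and three batches were averaged.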
For C32A U48A U54C, the self-cleavage was 0.12. For U31C U41G U69C, the self-cleavage was 0.1. For C34A A35U C40U U48C U54C, the self-cleavage was 0.07. In the case of G33A A64G C81U, the self-cleavage is reported as 0.22. In the case of C32A A64G C79U, the self-cleavage is reported as 0.22. In the case of U31C U51C A65G, the self-cleavage is reported as 0.27. In the case of U31C U48C U78C U80A, the self-cleavage is reported as 0.36. C34G U41C U80C showed a self-cleavage of 0.65. With C32U C34A U48C U67A the self-cleavage was 0.16. Variant G33A A35U C38U A45G A75G has a self-cleavage of 0.05. For G33U U67G U74C, the self-cleavage was 0.13. C32U A35U A64U showed a self-cleavage of 0.13. With C32U U54C A56G the self-cleavage was 0.09. U31G G52A U69C C79U showed a self-cleavage of 0.33. C32A U48C C81U gave a self-cleavage of 0.2. G33A U41C U43C A57G A75G showed a self-cleavage of 0. For C32U U48C U80C, the self-cleavage was 0.21. For G33A A56U U58C U69C, the self-cleavage was 0.15. Variant G33U G46U A56G A64U has a self-cleavage of 0.24. In the case of U31C U41A U48C U60C G63U A65G, the self-cleavage is reported as 0.12. For C32U A56G U72C U80C, the self-cleavage was 0.09. Work on U31C U69C U76C yielded a self-cleavage of 0.26. With U31C G53U U60A U66C G73U the self-cleavage was 0.29. U31C U51A U74A gave a self-cleavage of 1.21. For U31G A64G U74C, the self-cleavage was 0.67. Work on G33A U54A A56U yielded a self-cleavage of 0.23. With U31C C39U U60A A75G U78A the self-cleavage was 0.1. In the case of G33A G36A U43A U49C A77U, the self-cleavage is reported as 0.07. Variant G33U A57G U76A has a self-cleavage of 0.17. Variant U31C C40U U76C has a self-cleavage of 0.76. Work on C32U C37U U49C U51A U72C yielded a self-cleavage of 0.26. With C32A C34G U60C the self-cleavage was 0.12. In the case of C32G G36A U41A A45G U60A U66C U69A, the self-cleavage is reported as 0.1. Work on C32A U43C A56G yielded a self-cleavage of 0.17. Variant U31C C39U U54C C62U U80C has a self-cleavage of 0.15. G33A A56G U58C C62U showed a self-cleavage of 0.05. C34G A35G A45G U66C U67C showed a self-cleavage of 0.09. Variant U31C U49C A56G U80A has a self-cleavage of 1.04. C32U U41C U43C U76A A77C showed a self-cleavage of 0.04. Work on C32U U41A U49C U54C U58C yielded a self-cleavage of 0.12. Variant C32G A35G U74C has a self-cleavage of 0.13. Work on C32A C59U U76C U80C yielded a self-cleavage of 0.23. G33C U51G G70A gave a self-cleavage of 0.07. U31C U41C A45G A64U showed a self-cleavage of 0.2. G33U A47G U54A A57G showed a self-cleavage of 0.34. G33C U43C A64G showed a self-cleavage of 0.18. Variant G33C A35G U41C U43C U51G G70A U72A has a self-cleavage of 0.09. G33C U49A U51A showed a self-cleavage of 0.07. Work on U31C U41A U58C yielded a self-cleavage of 0.18. For U31C U49C U51A A56G U72A, the self-cleavage was 0.66. For U31C U41A U43G A77U, the self-cleavage was 0.21. U31C U48C A57G A65G showed a self-cleavage of 0.38. In the case of C32A C50A U54A U60A, the self-cleavage is reported as 0.2. C32A C38A A45G showed a self-cleavage of 0.19. C34G U72C U78C gave a self-cleavage of 0.25. U31C U43C A45U U48C A56U A57G U69A showed a self-cleavage of 0.05. C34U A35G C68U U78C gave a self-cleavage of 0.27. C32U C37U U48C U58C U60A gave a self-cleavage of 0.12. C34A G61A U69C gave a self-cleavage of 0.08. Work on C32U A45G U51G yielded a self-cleavage of 0.25. Work on C32U A45G U51A A57G U69C yielded a self-cleavage of 0.11. C34A A56U U72A showed a self-cleavage of 0.08. C34G A57G U58C gave a self-cleavage of 0.18. For U31C U51C G52U A56U G61A U66A, the self-cleavage was 0.13. Work on G33C A56G U72C yielded a self-cleavage of 0.73. With U31G U51C U60C the self-cleavage was 0.11. C32G U43A A56G U58C A75U showed a self-cleavage of 0.07. Work on U31C U43C C50A U69A yielded a self-cleavage of 0.09. With C34G A35G U48C the self-cleavage was 0.11. Work on U31C U58C U74C yielded a self-cleavage of 0.53. G33A U41A A56U gave a self-cleavage of 0.41. Variant G33A A35G C71U has a self-cleavage of 0.05. Work on C32U A65G A75U yielded a self-cleavage of 0.17. In the case of U31C U41C U48C A57G, the self-cleavage is reported as 0.78. In the case of C32A A45C U49A G70C U78C, the self-cleavage is reported as 0.07. In the case of U31C U41C A57G U78A, the self-cleavage is reported as 1.1. Work on U31C U43A U72C yielded a self-cleavage of 0.44. C32G A56G U69G G73A showed a self-cleavage of 0.06. U31C G33A U78C gave a self-cleavage of 0.35. In the case of G33U U72C U78C, the self-cleavage is reported as 0.25. Work on G33C G42A U58C A77C yielded a self-cleavage of 0.05. U31C G42A A56U C68A gave a self-cleavage of 0.2. In the case of G33A A35U C62U, the self-cleavage is reported as 0.22. In the case of U31C U58A U72A, the self-cleavage is reported as 0.18.
